The target of test [1] is T1, RBFOX1 RRM RbFoxmut (Fox-RRM*) (Homo sapiens, UniProt Q9NWB1 109-208, R118D;E147R;N151S;E152T).
T1 sequence: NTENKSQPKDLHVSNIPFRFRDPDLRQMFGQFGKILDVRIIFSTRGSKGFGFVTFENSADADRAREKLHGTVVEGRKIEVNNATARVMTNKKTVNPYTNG
Kind of test: EMSA; HiTS-Eq, 1 nM pool, 10 min; buffer printed only for the single-RNA assays: 10 mM Tris pH 7.5, 150 mM NaCl, 3.4 mM EDTA, 0.001% NP-40, 30 C. The settings on record: tags: His6 N-terminal (pET28a); label: 5' 32P. In short, it runs like this:
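Relative association constants, normalised to the cognate motif, were derived by comparing read counts of each RNA species with those of the control reaction. The RNA sequenced was the free fraction, separated by 8% native PAGE after a 10 min equilibration in 50 µL of 1 nM 5′-radiolabelled RNA (7 randomized nucleotides) with increasing concentrations of purified wild-type or mutant RbFox RRM.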

Test [2] addresses T1, RBFOX1 RRM RbFoxmut (Fox-RRM*). Description: competition; 10 mM Tris pH 7.5, 150 mM NaCl, 3.4 mM EDTA, 0.001% NP-40, 30 C. Conditions: tags: His6 N-terminal (pET28a).

Numbering of substitutions follows the chain as printed; changes in the protein carry UniProt numbers. The list shows a part of the results.

The values below come from PMC9911399, “Two distinct binding modes provide the RNA-binding protein RbFox with extraordinary sequence specificity”.

B1: GAUUGGG (DNA:RNA)
RNA: GGGAGACCGGAAUUCAGAUUGUCCGAUUGGGUUAAAUCCCGUCGUAGCCACCA
DNA 1: CAATCTGAATTCCGGTCTCCC
DNA 2: TGGTGGCTACGACGGGATT
As to B1, in test [1], the binding signal is 0.102 KA relative to UGCAUGU.

B2: AAUAAGU (DNA:RNA)
RNA: B1 RNA with G25A, U28A, G29A, G31U
DNA 1: CAATCTGAATTCCGGTCTCCC
DNA 2: TGGTGGCTACGACGGGATT
As for B2, the binding signal in test [1] was 0.0909 KA relative to UGCAUGU.

B3: UGCUUAC (DNA:RNA)
RNA: B1 RNA with G25U, A26G, U27C, G29U, G30A, G31C
DNA 1: CAATCTGAATTCCGGTCTCCC
DNA 2: TGGTGGCTACGACGGGATT
On to B3, for which the binding signal in test [1] was 0.119 KA relative to UGCAUGU.

B4: CAGAGGG (DNA:RNA)
RNA: B1 RNA with G25C, U27G, U28A
DNA 1: CAATCTGAATTCCGGTCTCCC
DNA 2: TGGTGGCTACGACGGGATT
As to B4, the binding signal in test [1] is 0.0898 KA relative to UGCAUGU.

B5: UCAGAGG (DNA:RNA)
RNA: B1 RNA with G25U, A26C, U27A, U28G, G29A
DNA 1: CAATCTGAATTCCGGTCTCCC
DNA 2: TGGTGGCTACGACGGGATT
For B5, in test [1], the binding signal is 0.0974 KA relative to UGCAUGU.

B6: GCUAGGG (DNA:RNA)
RNA: B1 RNA with A26C, U28A
DNA 1: CAATCTGAATTCCGGTCTCCC
DNA 2: TGGTGGCTACGACGGGATT
Take B6: the binding signal in test [1] is 0.0709 KA relative to UGCAUGU.

B7: UAGCGUG (DNA:RNA)
RNA: B1 RNA with G25U, U27G, U28C, G30U
DNA 1: CAATCTGAATTCCGGTCTCCC
DNA 2: TGGTGGCTACGACGGGATT
For the molecule B7, in test [1], the binding signal is 0.159 KA relative to UGCAUGU.

B8: AUCUGAA (DNA:RNA)
RNA: B1 RNA with G25A, A26U, U27C, G30A, G31A
DNA 1: CAATCTGAATTCCGGTCTCCC
DNA 2: TGGTGGCTACGACGGGATT
In the case of B8, the binding signal in test [1] was 0.0835 KA relative to UGCAUGU.

B9: UCGGCGA (DNA:RNA)
RNA: B1 RNA with G25U, A26C, U27G, U28G, G29C, G31A
DNA 1: CAATCTGAATTCCGGTCTCCC
DNA 2: TGGTGGCTACGACGGGATT
For the molecule B9, the binding signal in test [1] was 0.0721 KA relative to UGCAUGU.

B10: GGCUAGG (DNA:RNA)
RNA: B1 RNA with A26G, U27C, G29A
DNA 1: CAATCTGAATTCCGGTCTCCC
DNA 2: TGGTGGCTACGACGGGATT
As for B10, the binding signal in test [1] was 0.0845 KA relative to UGCAUGU.

Take GGCCAUG (ssRNA): the binding signal in test [2] came out at 852 nM.

B11: UUUGCGC (DNA:RNA)
RNA: B1 RNA with G25U, A26U, U28G, G29C, G31C
DNA 1: CAATCTGAATTCCGGTCTCCC
DNA 2: TGGTGGCTACGACGGGATT
In the case of B11, in test [1], the binding signal is 0.15 KA relative to UGCAUGU.

B12: ACCGGAG (DNA:RNA)
RNA: B1 RNA with G25A, A26C, U27C, U28G, G30A
DNA 1: CAATCTGAATTCCGGTCTCCC
DNA 2: TGGTGGCTACGACGGGATT
In the case of B12, the binding signal in test [1] was 0.0806 KA relative to UGCAUGU.

B13: UGUCUCA (DNA:RNA)
RNA: B1 RNA with G25U, A26G, U28C, G29U, G30C, G31A
DNA 1: CAATCTGAATTCCGGTCTCCC
DNA 2: TGGTGGCTACGACGGGATT
Turning to B13, the binding signal in test [1] was 0.11 KA relative to UGCAUGU.

B14: AUUACUC (DNA:RNA)
RNA: B1 RNA with G25A, A26U, U28A, G29C, G30U, G31C
DNA 1: CAATCTGAATTCCGGTCTCCC
DNA 2: TGGTGGCTACGACGGGATT
On to B14, for which, in test [1], the binding signal was 0.0782 KA relative to UGCAUGU.

B15: CAAAGUG (DNA:RNA)
RNA: B1 RNA with G25C, U27A, U28A, G30U
DNA 1: CAATCTGAATTCCGGTCTCCC
DNA 2: TGGTGGCTACGACGGGATT
B15: the binding signal in test [1] was 0.11 KA relative to UGCAUGU.

B16: UUAUCGC (DNA:RNA)
RNA: B1 RNA with G25U, A26U, U27A, G29C, G31C
DNA 1: CAATCTGAATTCCGGTCTCCC
DNA 2: TGGTGGCTACGACGGGATT
Turning to B16, in test [1], the binding signal was 0.0817 KA relative to UGCAUGU.

B17: AUAAUCU (DNA:RNA)
RNA: GGGAGACCGGAAUUCAGAUUGUCCAUAAUCUUUAAAUCCCGUCGUAGCCACCA
DNA 1: CAATCTGAATTCCGGTCTCCC
DNA 2: TGGTGGCTACGACGGGATT
On to B17, for which, in test [1], the binding signal was 0.0765 KA relative to UGCAUGU.

B18: UUGCAAU (DNA:RNA)
RNA: B17 RNA with A25U, A27G, A28C, U29A, C30A
DNA 1: CAATCTGAATTCCGGTCTCCC
DNA 2: TGGTGGCTACGACGGGATT
Consider B18, for which, in test [1], the binding signal is 0.0678 KA relative to UGCAUGU.

B19: UAUUCUU (DNA:RNA)
RNA: B1 RNA with G25U, G29C, G30U, G31U
DNA 1: CAATCTGAATTCCGGTCTCCC
DNA 2: TGGTGGCTACGACGGGATT
Take B19: in test [1], the binding signal was 0.0993 KA relative to UGCAUGU.

B20: GGUGGAG (DNA:RNA)
RNA: B1 RNA with A26G, U28G, G30A
DNA 1: CAATCTGAATTCCGGTCTCCC
DNA 2: TGGTGGCTACGACGGGATT
With B20, the binding signal in test [1] was 0.0892 KA relative to UGCAUGU.

B21: CGGCACA (DNA:RNA)
RNA: B17 RNA with A25C, U26G, A27G, A28C, U29A, U31A
DNA 1: CAATCTGAATTCCGGTCTCCC
DNA 2: TGGTGGCTACGACGGGATT
As for B21, the binding signal in test [1] was 0.0649 KA relative to UGCAUGU.

B22: CCGCGGU (DNA:RNA)
RNA: B1 RNA with G25C, A26C, U27G, U28C, G31U
DNA 1: CAATCTGAATTCCGGTCTCCC
DNA 2: TGGTGGCTACGACGGGATT
Regarding B22, the binding signal in test [1] was 0.112 KA relative to UGCAUGU.

B23: GUCGACC (DNA:RNA)
RNA: B17 RNA with A25G, A27C, A28G, U29A, U31C
DNA 1: CAATCTGAATTCCGGTCTCCC
DNA 2: TGGTGGCTACGACGGGATT
As for B23, the binding signal in test [1] was 0.0866 KA relative to UGCAUGU.

B24: GCGCCCC (DNA:RNA)
RNA: B17 RNA with A25G, U26C, A27G, A28C, U29C, U31C
DNA 1: CAATCTGAATTCCGGTCTCCC
DNA 2: TGGTGGCTACGACGGGATT
Take B24: in test [1], the binding signal was 0.0673 KA relative to UGCAUGU.

B25: ACACUUC (DNA:RNA)
RNA: B17 RNA with U26C, A28C, C30U, U31C
DNA 1: CAATCTGAATTCCGGTCTCCC
DNA 2: TGGTGGCTACGACGGGATT
On to B25, for which the binding signal in test [1] was 0.0369 KA relative to UGCAUGU.

B26: AGCUCAG (DNA:RNA)
RNA: B1 RNA with G25A, A26G, U27C, G29C, G30A
DNA 1: CAATCTGAATTCCGGTCTCCC
DNA 2: TGGTGGCTACGACGGGATT
As to B26, in test [1], the binding signal is 0.101 KA relative to UGCAUGU.

B27: AGUGUAA (DNA:RNA)
RNA: B17 RNA with U26G, A27U, A28G, C30A, U31A
DNA 1: CAATCTGAATTCCGGTCTCCC
DNA 2: TGGTGGCTACGACGGGATT
As for B27, the binding signal in test [1] is 0.128 KA relative to UGCAUGU.

B28: CACCCAG (DNA:RNA)
RNA: B1 RNA with G25C, U27C, U28C, G29C, G30A
DNA 1: CAATCTGAATTCCGGTCTCCC
DNA 2: TGGTGGCTACGACGGGATT
For the molecule B28, the binding signal in test [1] was 0.116 KA relative to UGCAUGU.

B29: GGCGAGA (DNA:RNA)
RNA: B1 RNA with A26G, U27C, U28G, G29A, G31A
DNA 1: CAATCTGAATTCCGGTCTCCC
DNA 2: TGGTGGCTACGACGGGATT
B29: the binding signal in test [1] is 0.0893 KA relative to UGCAUGU.

B30: UCUGUAC (DNA:RNA)
RNA: B17 RNA with A25U, U26C, A27U, A28G, C30A, U31C
DNA 1: CAATCTGAATTCCGGTCTCCC
DNA 2: TGGTGGCTACGACGGGATT
With B30, in test [1], the binding signal is 0.0965 KA relative to UGCAUGU.
